# Reference: patent US7105491B2 (priority 1999, dated 2006)
# Where two headings read alike, the source gives them in different places.
# Tested on: Micrococcus luteus ATCC9431
# Settings: compound isolated from S. globisporus mutant strain, M. luteus as testing organism
# From the text: Escherichia coli DH5α was used as a general host for routine subcloning (Sambrook et al. (1989) Molecular cloning, a laboratory manual. Cold Spring Harbor Laboratory, Cold Spring Harbor, NY). E. coli XL 1-Blue MR (Stratagene, La Jolla, Calif.) was used as the transduction host for cosmid library construction. E. coli S17-1 was used as the donor host for E. coli-S. globisporus conjugation (Mazodier et al. (1989) J. Bacteriol. 171: 3583–3585). Micrococcus luteus ATCC9431 was used as the testing organism to assay the antibacterial activity of C-1027 (Hu et al. (1988) J. Antibiot. 41: 1575–1579). The pGEM-3zf, -5zf, and -7zf and pGEM-T vectors were from Promega (Madison, Wis.).
# The production of C-1027 was detected by assaying its antibacterial activity against M. luteus (Hu et al. (1988) J. Antibiot. 41: 1575–1579). From liquid culture, fermentation supernant (180 μL) was added to stainless steel cylinders placed on LB plates pre-seeded with overnight M. luteus culture (0.01 % vol/vol). From solid culture, a small square block (0.5×0.5×0.5 cm^3) of agar from either R2YE or ISP-4 medium was directly placed on M. luteus-seeded LB plates. The plates were incubated at 37° C. for 24 hrs, and C-1027 production was estimated by measuring the size of inhibition zones.
# Bioassay: The S. globisporus sgcC mutant strain was cultured under the identical conditions as the wild-type strain. […]
substance,measurement,setting,value
deshydroxy-C-1027 [compound 3],"activity against M. luteus, inhibition zone on the bioassay plate",,clear inhibition zone
same,"activity against M. luteus, inhibition zone on the bioassay plate",listed as deshydroxyl-C-1027,active
